# Experimental data published in PubChem BioAssay AID624296 (National Center for Advancing Translational Sciences (NCATS), 2012).
# Screen size: about 350,000 compounds; about 9,900 (2.8%) were called active. The shares of active, inactive and inconclusive entries below differ from those in the screen. Calls come from the whole dose curve; as a rule, active = well fitted activation curve with a large enough effect; inconclusive = small, poorly fitted or top-dose-only effect; inactive = no such curve, though single readings can be large or run the other way. Potencies of inconclusive entries are left out as doubtful fits.
# Test: A quantitative high throughput screen for small molecules that induce DNA re-replication in MCF 10a normal breast cells. For activity, positive = re-replication: % of control where 0% means no effect. Note: nearly all actives have a fitted effect of over 50% in size.
# Conditions: MCF 10A DNA re-replication, Hoechst nuclear intensity, 48 h; activity, positive = re-replication: at 46.1 µM (top of the series)
# Potency is the fitted concentration of half-maximal effect; tags give direction and shape of the fitted curve.
SMILES,Potency,"activity, positive = re-replication"
COC(=O)C1CN(C(=O)COc2ccc(Cl)c(C)c2)c2ccccc2O1 (stereo unspecified),"inconclusive [activator, partial curve, poor fit]",
O=C(Nc1ccc(Cl)cc1)N[C@@H]1c2c(ccc3ccccc23)OC[C@@H]1CO,,inactive: 6.55%
CC(C)(C)C(=O)NCCCC(=O)O,,inactive: -0.928%
Cc1nc(N2CCN(Cc3ccccc3)CC2)nc2c1C(=O)CCC2,"inconclusive [activator, single point]",
COc1ccc(OC)c(NC(=O)CC2(CC(=O)O)CCCC2)c1,,inactive: -0.39%
O=C(COC(=O)c1ccc(O)cc1O)Nc1cc(-c2ccccc2)nn1-c1ccccc1,"inconclusive [activator, single point]",
COc1ccc(-n2cc(CNCCCn3ccnc3)c(-c3cccc(F)c3)n2)cc1,"inconclusive [activator, single point]",
O=C(NN=Cc1c(O)ccc2ccccc12)c1ccc2c(c1)OCO2,active: 11.6 µM,
O=C(Nc1ccc(F)cc1F)c1ccc2c(c1)[nH]c(=O)n2Cc1ccc(F)cc1,active: 5.8 µM,
Cc1c(C(=O)OCC(C)C)[nH]c2c1C(=O)CC(c1ccco1)C2 (stereo unspecified),active: 18.4 µM,
C#CCOCCOCCOCCNc1nc(N2CCN(C(=O)[C@H](CCC(=O)O)n3cc([C@@H](N)[C@H](C)CC)nn3)CC2)nc(N2CCN(C(=O)[C@H](CCC(=O)O)n3cc([C@@H](N)CC(N)=O)nn3)CC2)n1,"inconclusive [activator, single point]",
CCCNC(=O)c1c(NC(=O)C2COc3ccccc3O2)sc2c1CCCC2 (stereo unspecified),"inconclusive [activator, single point]",
O=C(/C=C/c1c(Cl)cccc1Cl)N1CCOCC1,,inactive: -1.42%
O=C(NCc1ccccc1)c1onc(CS(=O)(=O)c2ccc(Cl)cc2)c1C(=O)NCc1ccccc1,"inconclusive [activator, partial curve, poor fit]",
CCOc1cccc(/C=N/NC(=S)Nc2ccccc2[N+](=O)[O-])c1O,,inactive: 9.68%
COc1ccccc1CN1C(=O)CN(C2CCCCCC2)C(=O)C1c1ccc(F)cc1 (stereo unspecified),"inconclusive [activator, partial curve, poor fit]",
O=C(CSc1ccccc1)N1CCCC(Nc2ccccc2)C1 (stereo unspecified),"inconclusive [activator, single point]",
Cc1ccc(OCCOCCNC(C)C)c(Br)c1,"inconclusive [activator, partial curve, poor fit]",
N=C1/C(=C\c2coc3ccccc3c2=O)C(=O)N=C2SC=CN12,"inconclusive [activator, single point]",
CCCCn1cnc2c(SCc3ccc(Cl)cc3)nc(N)nc21,"inconclusive [activator, single point]",
Cc1cc2[nH]c(=O)c(=O)[nH]c2cc1S(=O)(=O)Nc1cccc(F)c1,,inactive: -1.79%
O=C(NNc1cc(C(F)(F)F)nc2ccccc12)Nc1cccc(Cl)c1,"inconclusive [activator, single point]",
CC(=O)Nc1ccc(NC(=O)c2cccc(Oc3ccccc3)c2)cc1,,inactive: 8.11%
N#Cc1c(-c2ccc(Cl)cc2)c2c([nH]c1=O)-c1ccccc1OC2,active: 1.84 µM,

SMILES,Potency,"activity, positive = re-replication"
COc1cc(C(=O)N/N=C/c2ccsc2C)cc(OC)c1OC,"inconclusive [activator, full curve, poor fit]",
CCOc1ccc(S(=O)(=O)N2CCN(CC(O)COc3cccc([N+](=O)[O-])c3)CC2)cc1 (stereo unspecified),,inactive: -0.156%
COC(=O)c1ccc(NC(=O)c2ccc(N(C)S(C)(=O)=O)cc2)cc1,,inactive: 5.87%
CCc1nnc(N/N=C/c2ccccc2Cl)n1N,,inactive: 22.4%
CCCCCCCNC(=O)C1(CC2CC(c3ccc(Cl)cc3)=NO2)CCN(C(=O)c2ccccc2)CC1 (stereo unspecified),"inconclusive [activator, partial curve]",
Cn1c(-c2sc3cc(C(F)(F)F)cnc3c2-c2cccnc2)n[nH]c1=S,,inactive: -2.8%
COCCCNC(=O)c1c(N)n(-c2ccccc2)c2nc3ccccc3nc12,active: 23.1 µM,
CN1CCN(C(=O)CN(Cc2ccc(Cl)cc2)S(C)(=O)=O)CC1,,inactive: -1.28%
Cc1cccc2cc(C#N)c(NCCCn3ccnc3)nc12,"inconclusive [activator, single point]",
Cc1cccc(C(=O)N2CCC(=O)N(C(COCc3cccc(Cl)c3)Cc3ccccc3)CC2)c1 (stereo unspecified),"inconclusive [activator, single point]",
Cc1cc(C(=O)N/N=C\c2cc(C(C)(C)C)c(O)c(C(C)(C)C)c2)n[nH]1,"inconclusive [activator, single point]",
CC1CCCN(C(=O)CSc2cnc3ccccc3n2)C1 (stereo unspecified),"inconclusive [activator, single point]",
CCOc1ccccc1C(=O)NC(C(=O)N(C)c1c(N)n(Cc2ccccc2)c(=O)[nH]c1=O)C(C)C (stereo unspecified),,inactive: 0.149%
C=CCc1c(C)nc(-c2ccccc2)nc1N/N=C/c1ccccc1,"inconclusive [activator, partial curve, poor fit]",
O=C1[C@@H]2Cc3c([nH]c4ccccc34)C(c3ccccc3)N2C(=O)CN1C1CCN(Cc2ccccc2)CC1 (stereo partly specified),"inconclusive [activator, single point]",
Cc1cccc(NC(=O)CCc2ccccc2)c1,,inactive: 1.69%
CN(CC(=O)Nc1ccc(Cl)cc1)c1ccc(S(=O)(=O)N2CCCCC2)cc1[N+](=O)[O-],,inactive: -4.55%
Nc1c(Cl)cc(Cl)cc1C(=O)OCC(=O)N1CCOCC1,,inactive: -0.851%
O=C(CNc1ccc(F)cc1)c1ccccc1,"inconclusive [activator, full curve, poor fit]",
N#CC1=C(N)C2=CCCC[C@H]2[C@H](c2ccc(Br)cc2)C1(C#N)C#N,active: 16.4 µM,
COc1cccc(-n2nnc3c(=O)n(Cc4c(F)cccc4Cl)cnc32)c1,"inconclusive [activator, partial curve, poor fit]",
Cc1nn(Cc2ccccc2)c2c1C(c1ccc(Cl)cc1)C(C#N)=C(N)O2 (stereo unspecified),"inconclusive [activator, single point]",
CCOC(=O)C1(Cc2ccccc2)CCN(Cc2csc(C(C)=O)c2)CC1,"inconclusive [activator, partial curve, poor fit]",
COc1cccc(/C=C/C(=O)c2ccc(C)c([N+](=O)[O-])c2)c1,active: 6.51 µM,

SMILES,Potency,"activity, positive = re-replication"
O=C(Nc1ccccn1)c1cc2ccccc2cc1O,"inconclusive [activator, single point]",
Oc1ccc(C2=NNC(=NCc3ccc4c(c3)OCO4)SC2)c(O)c1,active: 11.6 µM,
CCCCC(=O)N/N=C(\C)CC(=O)Nc1cc(Cl)ccc1OC,,inactive: -0.526%
COc1ccc(C(NC(=O)CNC(C)=O)C(=O)Nc2ccc(C(C)C)cc2)cc1 (stereo unspecified),"inconclusive [activator, partial curve, poor fit]",
CCOC(=O)C(C(C)=O)C(c1ccc(OCCC(C)C)cc1)C(C(C)=O)C(=O)OCC (stereo unspecified),"inconclusive [activator, full curve, poor fit]",
NS(=O)(=O)c1cccc(NC(=O)CSc2nnc(C3CC3)n2-c2ccccc2)c1,,inactive: -8.65%
N=c1c(C(=O)NCCN2CCOCC2)cc2c(=O)n3ccccc3nc2n1Cc1ccc(F)cc1,active: 1.3 µM,
COCCCn1c(=NC(C)=O)c(C#N)cc2c(=O)n3cccc(C)c3nc21,active: 18.4 µM,
O=C(NN1CCN(Cc2ccccc2Cl)CC1)c1ccc(Br)cc1,"inconclusive [activator, single point]",
C[N+]1(CCNC(=O)/C=N/O)CCCCC1,"inconclusive [activator, partial curve, poor fit]",
Cc1cc(C)nc(NC(=O)c2cc([N+](=O)[O-])cc([N+](=O)[O-])c2)n1,"inconclusive [activator, single point]",
CC(C)C1Oc2ccccc2N(CC(=O)N(C)C2CCCCC2)C1=O (stereo unspecified),"inconclusive [activator, single point]",
CN(CC(=O)Nc1ccc(S(=O)(=O)N2CCCC2)cc1)Cc1ccc(Cl)cc1,"inconclusive [activator, partial curve, poor fit]",
CCOc1[nH]n(-c2ccccc2)c(=O)c1C=Nc1ccccc1,active: 23.1 µM,
CCOC(=O)c1sc(NC(=O)c2cccc(S(=O)(=O)N3c4ccccc4CC3C)c2)cc1C (stereo unspecified),active: 8.2 µM,
CC(=O)c1ccc(N2CCN(C(=O)CCC(=O)Nc3ccc4nc(N5CCN(C)CC5)cc(C)c4c3)CC2)cc1,"inconclusive [activator, single point]",
Cc1cccc(NC(=O)Cn2cc(C(=O)c3ccco3)c3ccccc32)c1,"inconclusive [activator, single point]",
CCN1CCN(CCC(=O)Nc2ccccc2C)CC1,,inactive: -5.22%
Cc1ccc(C2=NC(=O)/C(=C/c3cc(O)c(O)c(Br)c3)S2)cc1,"inconclusive [activator, single point]",
COc1ccc(-c2oc3ncn(CCN4CCOCC4)c(=N)c3c2-c2ccc(OC)cc2)cc1,active: 13 µM,
COC(=O)C1=C(C)N(Cc2ccccc2)C(=O)N[C@H]1c1cccc(F)c1,,inactive: 7.55%
Cc1cc(C)cc(C(=O)Nc2cccnc2)c1,,inactive: -5.6%
Cn1c(SCc2ccccc2C#N)nc2ccccc2c1=O,"inconclusive [activator, single point]",
